# Reference: PubChem BioAssay AID2451 (National Center for Advancing Translational Sciences (NCATS), 2010)
# Out of some 290,000 compounds screened, about 2,100 (0.72%) were called active. About 4% were inconclusive and are not listed. The call rests on the fitted dose curve; in most records, active means well fitted inhibition curve with a large enough effect; inconclusive means small, poorly fitted or top-dose-only effect, or effect the other way; inactive means flat fitted curve, though single readings scatter. The list shows a part of the results, in another mix than the full data. More than one record can exist for a structure, and the calls need not agree.
# Target: Fructose-bisphosphate aldolase (Giardia intestinalis (strain ATCC 50803 / WB clone C6)) (UniProt A8B2U2)
# Test: qHTS Assay for Inhibitors of Fructose-1,6-bisphosphate Aldolase from Giardia Lamblia; further: nearly all actives have a fitted effect of over 55% in size
# Conditions: purified Giardia FBPA; series mostly up to 59.6 µM; activity, negative = inhibition: at the top concentration
# Source text: Assay Provider: Osnat Herzberg, University of Maryland
# The objective of this project is to obtain compounds that inhibit Giardia lamblia growth. G. lamblia is a human pathogen which afflicts impoverished nations; it is the most common cause of outbreaks of diarrhea in the United States. During the course of our study of potential drug targets in Giardia, we have identified the Class II (Zn2+ functions in electrophilic catalysis) fructose-1,6-bisphosphate aldolase (FBPA) as an excellent candidate for drug targeting. FBPA is a key glycolytic pathway enzyme, essential for G. lamblia survival. The human FBPA belongs to the Class I aldolases, which have a different substrate binding site structure and a radically different catalytic mechanism (employing a lysine-Schiff base intermediate). Therefore, affinity-based or mechanism-based inhibitors of the Giardia FBPA are expected not to interfere with the catalytic function of the human FBPA.
# A glyceraldehyde-3-phosphate dehydrogenase/triose phosphate isomerase/NAD/arsenate coupled assay was adapted to the 1536-well HTP format for use in the primary screen. This was done by coupling it to a diaphorase/resazurin/resorufin reaction that can be monitored by fluorescence (excitation, 544 nm; emission, 590 nm). Compounds identified in this screen will be further evaluated by coupling the glycerol-3-phosphate/triose phosphate isomerase/NADH assay to a phenazine methosulfate/tetranitroblue tetrazolium color reaction. False positives due to the dehydrogenases and diaphorase inhibition will be eliminated, and selectivity assay will triage inhibitors of mammalian triose phosphate isomerase and the Class I FBPA. G. lamblia FBPA inhibitors identified by the in vitro analyses will be examined for growth inhibition of Giardia trophozoites, and for cytotoxicity in human cells.
# Step,Parameter,Value,Description
# 1,Enzyme reagent,2 uL,40 nM FBPA
# 2,Compound,23 nL,3.68 nM-57.5 uM final concentration
# 3,Time,10 min,RT Incubation
# 4,Substrate/detection Reagent,2 uL,Substrate + enzyme coupling system + AmpLite Red kit
# 5,Time,20 min,RT Incubation
# 6,Detector,525 nm/598 nm (Fluorescence),ViewLux Fluorescence Read (Read 1)
# 1,Medium-binding black solid-bottom Kalypsys plates. FRD or Kalypsys dispenser, 2 uL of FBPA enzyme. Bottle kept at 4C.
# 2,Compound Library (10 mM ,1:5 dilution). Pin-transferred for a [final] range of 3.68 nM-57.5 uM.
# 4,FRD or Kalypsys dispenser, 2 uL of reaction mixture. Bottle kept at 4C and covered in foil to protect from light.
# 6,ViewLux Protocol 1194; Excitation filter wheel A (525/20 Pol; BODIPY TMR FP), Emission filter wheel B (598/25 S; BODIPY TMR FP S).
# Keywords: Fructose-bisphosphate aldolase, FBPA , Giardia lamblia , Giardia, HTS, Inhibitors
# On the % scale 0 is the no-effect control and ±100 the full control effect; potency means the concentration at half of the fitted maximal effect.
# Chain of UniProt A8B2U2 (A8B2U2 whole entry, looked up): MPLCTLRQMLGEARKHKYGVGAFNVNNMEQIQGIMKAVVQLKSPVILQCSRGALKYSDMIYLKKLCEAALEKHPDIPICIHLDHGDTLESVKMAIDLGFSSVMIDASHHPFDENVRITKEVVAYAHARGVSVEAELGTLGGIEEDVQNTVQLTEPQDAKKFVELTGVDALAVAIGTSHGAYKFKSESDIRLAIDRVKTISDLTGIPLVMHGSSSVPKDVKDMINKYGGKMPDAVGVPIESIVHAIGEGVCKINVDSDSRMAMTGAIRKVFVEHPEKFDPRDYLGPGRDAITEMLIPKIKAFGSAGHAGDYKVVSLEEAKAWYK
Compound,Potency,"activity, negative = inhibition"
CCCN(CCC)S(=O)(=O)c1ccc(C(=O)O)cc1,inactive,–
CCCCC1=CC2=CC(=O)C(C)(OC(=O)CC)C(=O)C2=CN1Cc1ccco1 (centres undefined),–,inactive: -25.2% [at 12.9 µM]
O=C(O)CSc1cccc2cccnc12,–,inactive: -25.4%
CC(C)(C)[C@H]1C=C(C(=O)NCc2ccccc2)O[C@@H](OCc2ccc(CO)cc2)C1,–,inactive: -1.78%
CC1(C)OC1COc1c2occc2cc2ccc(=O)oc12 (centres undefined),–,inactive: -5.39%
C[n+]1cc2c3c(ccc2c2ccc4cc5c(cc4c21)OCO5)OCO3,inactive,–
CCc1cc(-c2n[nH]c(=S)n2N)n(C)n1,active: 9.98 µM,–
Cc1ccccc1NC(=S)NNC(=O)c1ccco1,active: 7.94 µM,–
CN(C)[C@@H]1C(=O)C(C(N)=O)=C(O)[C@@]2(O)C(=O)C3=C(O)c4c(O)ccc(Cl)c4[C@@](C)(O)C3C[C@@H]12 (some centres undefined),–,inactive: -19.5%
C=Cc1c(C)c2cc3[nH]c(cc4nc(cc5nc(cc1[nH]2)C(C)=C5CCC(=O)O)C(CCC(=O)O)=C4C)c(C)c3C=C,–,inactive: -4.28%
COc1cc(O)c2c(c1)oc(=O)c1c3cc(O)c(O)cc3oc21,–,inactive: -3.45%
c1cc(Cc2cnc[nH]2)ccn1,–,inactive: -12.4%
N[C@@H](CCC(=O)N[C@H](CSN=O)C(=O)NCC(=O)O)C(=O)O,–,inactive: -0.224%
NS(=O)(=O)c1ccc(NC2=CC(=O)C(=O)c3ccccc32)cc1,active: 2.51 µM,–
O=C(O)c1cc(O)c2c(c1)C(=O)c1cccc(O)c1C2=O,–,inactive: -20.9%
COC(=O)/C=C1/N/C(=N\c2nc(C)cc(C)n2)N(c2ccc(C)c(C)c2)C1=O,–,inactive: -24.2%
CCCc1cc(=O)[nH]c(=S)[nH]1,inactive,–
CC(=O)O[C@@]1(C(C)=O)CCC2C3C=C(Cl)C4=CC(=O)CC[C@]4(C)C3CC[C@]21C (some centres undefined),–,inactive: -0.734%
COC(=O)CCCC1=CC2=C(c3ccccc3)C(=O)C(C)(OC(=O)C3CCCC3)C(=O)C2=CN1Cc1ccc(OC)cc1 (centres undefined),–,inactive: -21.1% [at 12.9 µM]
COc1ccccc1CN1CCN(Cc2cc(OC)c(OC)cc2OC)CC1,active: 25.1 µM,–
COc1ccc2c(c1)c(CC(=O)O)c(C)n2C(=O)c1ccc(Cl)cc1,inactive,–
O=C(O)c1cc(=O)cc(C(=O)O)[nH]1,–,inactive: -6.07%
N#C/C(=C/c1ccc(-c2ccccc2[N+](=O)[O-])o1)C(N)=O,–,inactive: -27.1%
CN(C)[C@@H]1C(=O)C(C(N)=O)=C(O)[C@]2(O)C(=O)C3=C(O)c4c(O)ccc(Cl)c4[C@H](O)[C@H]3C[C@@H]12,–,inactive: -19.3% [at 21.7 µM]

Compound,Potency,"activity, negative = inhibition"
CSc1ccc(CNc2ncc(-c3cccc([N+](=O)[O-])c3)n2C)cc1,active: 20 µM,–
Cc1c(O)c(=O)ccn1Cc1ccccc1,–,inactive: -6.72% [at 12.9 µM]
O=C(CCCN1C(=O)/C(=C/c2ccco2)SC1=S)Nc1cccc(C(=O)O)c1,active: 15.8 µM,–
COc1cc(NCc2ccc3nc(N)nc(N)c3c2C)cc(OC)c1OC,active: 5.61 µM,–
CCCCC1=CC2=C(c3ccco3)C(=O)C(C)(OC(=O)c3ccc(OC)cc3)C(=O)C2=CN1c1ccccc1 (centres undefined),–,inactive: -17% [at 12.9 µM]
OCCN1CCN(CC/C=C2\c3ccccc3Sc3ccc(C(F)(F)F)cc32)CC1,–,inactive: -8.6% [at 21.7 µM]
CC(C)[C@@]1(NC(=O)[C@@H]2C[C@H]3c4cccc5[nH]cc(c45)C[C@@H]3N(C)C2)O[C@@]2(O)[C@H]3CCCN3C(=O)[C@H](Cc3ccccc3)N2C1=O,inactive,–
CC(C(=O)Nc1ccccc1F)N1CCN(C)CC1 (centres undefined),active: 15.8 µM,–
CN[C@@H]1[C@H](O)[C@H](NC)[C@H]2O[C@@]3(O)C(=O)C[C@@H](C)O[C@H]3O[C@@H]2[C@H]1O,inactive,–
CC(CO)NC(=O)C1C=C2c3cccc4[nH]cc(c34)C[C@H]2N(C)C1 (some centres undefined),–,inactive: 2.45%
C[C@@H](C(=O)O)c1cccc(C(=O)c2ccccc2)c1,–,inactive: 9.9% [at 21.7 µM]
O=c1oc2ccccc2c2oc3cc(O)c(O)cc3c12,–,inactive: -20%
CC(=O)c1cccc(NC(=S)N2CCc3ccccc32)c1,active: 25.1 µM,–
O=C(CC(NCc1ccccn1)C(=O)O)Nc1ccccc1Cl (centres undefined),active: 6.29 µM,–
N#C/C(=C\c1ccc(O)c(O)c1)C(=O)NCCCc1ccccc1,–,inactive: 12.3%
CC(CN1CCCC1)OC(=O)c1cccc(F)c1 (centres undefined),active: 17.8 µM,–
O=C1C=CC(=O)c2c(O)c(Cl)c(Cl)c(O)c21,active: 12.6 µM,–
CC[n+]1c(/C=C(/C)SC)sc2ccccc21,–,inactive: -4.43%
CCOC(=O)c1c(N)ssc1=S,–,inactive: -0.742%
COc1c(O)cc2oc(-c3ccc(O)c(O)c3)cc(=O)c2c1O,–,inactive: -24.4%
CCCn1nnc(NC(=S)NC(=O)/C=C/c2ccco2)n1,active: 15.8 µM,–
O=[N+]([O-])c1ccccc1S(=O)(=O)Nc1cccc2cccnc12,–,inactive: -18.2%
Nc1nc2ncc(CNc3ccc(C(=O)N[C@@H](CCC(=O)O)C(=O)O)cc3)nc2c(=O)[nH]1,inactive,–
COc1cc(O)c(C(CCN2CCN(c3ccccc3)CC2)c2ccc3c(c2)OCO3)c(OC)c1 (centres undefined),–,inactive: -27.2%

Compound,Potency,"activity, negative = inhibition"
CC(=O)CC(c1ccccc1)c1c(O)c2ccccc2oc1=O (centres undefined),inactive,–
CC1=C/C(=C(/c2cc(C)c(O)c(Br)c2)c2ccccc2S(=O)(=O)O)C=C(Br)C1=O,–,inactive: -22.2%
Cc1ccccc1/C=N/n1c(-c2ccccn2)n[nH]c1=S,active: 3.97 µM,–
O=C(Nc1cccc(C(=O)Nc2ccc(S(=O)(=O)O)c3cc(S(=O)(=O)O)cc(S(=O)(=O)O)c23)c1)Nc1cccc(C(=O)Nc2ccc(S(=O)(=O)O)c3cc(S(=O)(=O)O)cc(S(=O)(=O)O)c23)c1,–,inactive: 29.7%
CC(=O)N(C)c1ccc(N=Nc2c(C)[nH]n(-c3ccccc3)c2=O)cc1,active: 4.47 µM,–
CCOc1cc(CC(=O)N[C@@H](CC(C)C)c2ccccc2N2CCCCC2)ccc1C(=O)O,–,inactive: 27.6% [at 21.7 µM]
[O-]/C(=C(\C(=S)Nc1cccc2ccccc12)[n+]1ccccc1)c1ccc2c(c1)OCCO2,active: 9.98 µM,–
NCCSSCCN,–,inactive: -1.18%
CN(C)[C@@H]1C(=O)C(C(N)=O)=C(O)[C@]2(O)C(=O)C3=C(O)c4c(O)ccc(Cl)c4[C@](C)(O)[C@H]3C[C@@H]12,–,inactive: -26.1% [at 21.7 µM]
CC(C(=O)O)c1cccc(C(=O)c2ccccc2)c1 (centres undefined),inactive,–
O=C1ON=C(c2ccccc2)/C1=C/c1ccc(O)c(O)c1,active: 3.98 µM,–
NS(=O)(=O)c1cc2c(cc1Cl)NC(CSCc1ccccc1)=NS2(=O)=O,inactive,–
c1ccc(-c2ccccn2)nc1,–,inactive: -1.1%
CCN(CC)C(=S)SSC(=S)N(CC)CC,inactive,–
COc1cc2nc(N3CCN(C(=O)[C@@H]4CCCO4)CC3)nc(N)c2cc1OC,–,inactive: -8.52% [at 21.7 µM]
O=c1c(O[C@@H]2O[C@H](CO)[C@@H](O)[C@H](O)[C@H]2O)c(-c2ccc(O)c(O)c2)oc2cc(O)cc(O)c12,–,inactive: -19.5%
CCCCC1=CC2=C(c3ccco3)C(=O)C(C)(OC(=O)c3ccc(OC)cc3)C(=O)C2=CN1CCN1CCOCC1 (centres undefined),–,inactive: -23.7%
CCCCC1=CC2=C(c3ccco3)C(=O)C(C)(OC(=O)c3ccc(OC)cc3)C(=O)C2=CN1C(CO)CO (centres undefined),–,inactive: -19.5%
O=C(O)CSc1cc(NS(=O)(=O)c2cccc([N+](=O)[O-])c2)c2ccccc2c1O,active: 2.51 µM,–
Oc1cc2c(cc1O)CN(C(=S)NCCc1ccc(Cl)cc1)CCC2,–,inactive: -17.6%
C[C@H](NC(=O)c1nc[nH]c1C(=O)NCC(=O)OC(C)(C)C)c1ccccc1,–,inactive: -29.8%
Cc1coc2c1C(=O)C(=O)c1c-2ccc2c1CCCC2(C)C,–,inactive: -27.8%
CCOC(=O)C1=C(C)NC2(O)c3ccccc3C(=O)C12O (centres undefined),–,inactive: -22.5%
CCC(C)[C@H](NC(=O)N1CC(=O)Nc2ccccc21)C(=O)N[C@@H](Cc1c[nH]c2ccccc12)C(=O)O (some centres undefined),–,inactive: 4.32%

Compound,Potency,"activity, negative = inhibition"
O=C(O)c1ccc(N/N=C/c2ccncc2)cc1,active: 3.98 µM,–
CCCCN(C)S(=O)(=O)c1ccc(C(=O)Nc2nnc(C3=COCCO3)o2)cc1,active: 17.7 µM,–
CC[C@H]1CN2CCc3cc(OC)c(OC)cc3[C@@H]2C[C@@H]1C[C@H]1NCCc2cc(OC)c(OC)cc21,inactive,–
CNC(C)C(O)c1ccccc1 (centres undefined),–,inactive: -6.01%
O=C(Nc1nccs1)c1cn2ccccc2n1,active: 14.1 µM,–
CN1CCCN(Cc2ccc(Cl)cc2Cl)CC1,active: 19.9 µM,–
O=C(O)[C@@H]1C[C@@H](C(=O)O)N1,–,inactive: -5.48%
C=CCNCCCOc1ccc(Cl)cc1C(C)(C)C,active: 17.7 µM,–
COC(=O)C1=C(C)NC(C)=C(C(=O)OC)C1c1ccccc1[N+](=O)[O-],inactive,–
CNC(C)[C@H](O)c1ccccc1 (some centres undefined),–,inactive: -0.941%
CN(C)CCCOc1nn(Cc2ccccc2)c2ccccc12,–,inactive: -1.94% [at 21.7 µM]
O=C(/C=C\c1ccc(O)c(O)c1)O[C@@H](Cc1ccc(O)c(O)c1)C(=O)O,–,inactive: -29.1%
COc1cc2nc(N3CCN(C(=O)C4CCCO4)CC3)nc(N)c2cc1OC (centres undefined),inactive,–
CCCCC1=CC2=CC(=O)C(C)(OC(=O)CC)C(=O)C2=CN1CCN1CCOCC1 (centres undefined),–,inactive: -14.3% [at 12.9 µM]
CCN(CC)Cc1cc(O)c(CN(CC)CC)cc1O,active: 5.61 µM,–
CC[n+]1c(/C=C2\C=C(C)CC(C)C2)sc2ccccc21 (centres undefined),–,inactive: -17%
COc1cccc2c1C(=O)c1c(O)c3c(c(O)c1C2=O)C[C@@](O)(C(=O)CO)C[C@@H]3O[C@@H]1C[C@H](N)[C@H](O)[C@H](C)O1,–,inactive: -26.4%
Cc1nnc(N/N=C\c2ccc(-c3cccc(C(=O)O)c3)o2)n1N,active: 8.89 µM,–
O=C(Cn1ccnc1)c1ccc(Cl)cc1,–,inactive: -6.15%
COc1cccc2c1C(=O)c1c(O)c3c(c(O)c1C2=O)C[C@](O)(C(C)=O)C[C@H]3O[C@@H]1C[C@H](N)[C@H](O)[C@H](C)O1,–,inactive: -16.4% [at 21.7 µM]
CS(=O)(=O)Nc1ccc([N+](=O)[O-])cc1Oc1ccccc1,inactive,–
Brc1cc2[nH]cnc2c2ccccc12,active: 17.7 µM,–
